{"source": "the supplement of paper PMC11417369", "note": "Some of the results follow.", "data": [{"test_system": "PfSIP2 AP2 domain 1 (GST-tagged)", "test": "gcPBM binding intensity (ln(normalized median fluorescence intensity)); higher = stronger DNA binding", "procedure,_shortened": "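GST-fused DNA-binding domains of P. falciparum, expressed in E. coli, were applied at about 25 μg on average for 1 h to an Agilent 4 × 180k array of primer-extended double-stranded 36-bp intergenic genomic probes and negative controls. Binding intensity is the highest Masliner-normalised natural-log median intensity across replicate spots of either probe orientation, measured with Alexa488 anti-GST antibody and a 488 nm scan.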", "values": [{"sequence": "TCCTATAATAACGTCACACATTAAATTTAATAAATT [CACACA_site4506]", "gcPBM binding intensity (ln)": 6.99}, {"sequence": "TATACAAAATATTTTACACACACATATATATACATA [CACACA_site2616]", "gcPBM binding intensity (ln)": 7.15}, {"sequence": "CATTATTTATTTTAATGTACTTATTTTTAAATTGGT [XGTACX_site8038]", "gcPBM binding intensity (ln)": 7.07}, {"sequence": "AAAAAAAAAAAAAAAACACACATATATCTATAATAT [CACACA_site6665]", "gcPBM binding intensity (ln)": 7.42}, {"sequence": "AGTGCATACATGAATTGTACTTTAAAATAAATTCTA [XGTACX_site8156]", "gcPBM binding intensity (ln)": 8.19}, {"sequence": "AAAATATAATATAATGCACACATAAACAAAAAAAAA [CACACA_site8161]", "gcPBM binding intensity (ln)": 7.26}, {"sequence": "TTTTTTTTTTTTTTGGGTACATAATAATAACAAGTG [XGTACX_site1034]", "gcPBM binding intensity (ln)": 7.36}, {"sequence": "TTTTATTTAACTCATAATTTTTTAAAAAACAATTAT [XGTACX_negctrl_site19]", "gcPBM binding intensity (ln)": 6.82}, {"sequence": "CATGTAATATTAAACACACACTCATATAACTCAATA [CACACA_site4212]", "gcPBM binding intensity (ln)": 6.85}, {"sequence": "CACATATACTTCTGTGCACACGAATATTTTTCTTCT [CACACA_site1408]", "gcPBM binding intensity (ln)": 9.1}, {"sequence": "TTAACATTATATGAAGGTACAGAAAAAAAAAAATTA [XGTACX_site8530]", "gcPBM binding intensity (ln)": 6.92}, {"sequence": "TTTCTTATAGATTTTAATCCTCTATCAAAAAAAGAA [GTGCAC_negctrl_site162]", "gcPBM binding intensity (ln)": 6.96}, {"sequence": "CATACAGTATTATACTGTACCCATACAAAAAAATAT [XGTACX_site6130]", "gcPBM binding intensity (ln)": 7.21}, {"sequence": "AAATAAAAAAAATTTGCACACCTTCAAAGTAATATA [CACACA_site1583]", "gcPBM binding intensity (ln)": 7.25}, {"sequence": "CTTATTTAAGAGTATGAACACACATCATACACATAT [CACACA_site9205]", "gcPBM binding intensity (ln)": 6.95}, {"sequence": "TTTTTAATATTCTATGCATGCATCGCATATTTGGTT [TGCATGCA_site1004]", "gcPBM binding intensity (ln)": 6.83}, {"sequence": "TTTCATTGGTTTATAAAATTATGAGATCTTAAAGAC [CACACA_negctrl_site1484]", "gcPBM binding intensity (ln)": 7.22}, {"sequence": "TCTGTAAAGTAATGGACACACAATATATCCATTTAT [CACACA_site1536]", "gcPBM binding intensity (ln)": 6.95}, {"sequence": "ATATATATATATATATGTACATATATTTATATTTAT [XGTACX_site6179]", "gcPBM binding intensity (ln)": 9.37}, {"sequence": "GAATAATATGGACATACACACATATACATACAGATA [CACACA_site5200]", "gcPBM binding intensity (ln)": 7.25}, {"sequence": "TTATATATCTATAATACACACATAATAATATATTTA [CACACA_site7423]", "gcPBM binding intensity (ln)": 6.91}, {"sequence": "GCTACGTAAAAAATATGTACATATGAAATATTTTGC [XGTACX_site5111]", "gcPBM binding intensity (ln)": 7.09}, {"sequence": "ATACATATATAAATACGTACATATATAATTATATAT [XGTACX_site8178]", "gcPBM binding intensity (ln)": 7.4}, {"sequence": "AAATGAGAAGAAATACGTACATATAATAAAATAATT [XGTACX_site4439]", "gcPBM binding intensity (ln)": 7.06}, {"sequence": "ATGCATAAATTTTGAAGTACAAAAAAAAAAAATAAA [XGTACX_site7282]", "gcPBM binding intensity (ln)": 6.98}, {"sequence": "ATATATAATAAATACACACACATGTATTTATAAATA [CACACA_site5135]", "gcPBM binding intensity (ln)": 6.91}, {"sequence": "TGAATTATAAATTATAGTACTTTATAATATGAACAT [XGTACX_site2317]", "gcPBM binding intensity (ln)": 6.81}, {"sequence": "ATATAAATAAATTAGTGAAAAAAAAAAAATTTTTTT [CACACA_negctrl_site945]", "gcPBM binding intensity (ln)": 6.7}, {"sequence": "CTCCATATGAAACACACACACAAATGAAAAAAATAT [CACACA_site3018]", "gcPBM binding intensity (ln)": 7.25}, {"sequence": "AATTAACAAAGACACACACACACACGCACAAAAAAA [CACACA_site6388]", "gcPBM binding intensity (ln)": 7.26}, {"sequence": "TTTAAAAAAATATATACACACATATATATATATATA [CACACA_site617]", "gcPBM binding intensity (ln)": 9.43}, {"sequence": "ATAGAAATAAAATAAAATAAAAAAAAAATAATGAAA [CACACA_negctrl_site1565]", "gcPBM binding intensity (ln)": 6.85}, {"sequence": "CATATATATATATATTGTACAAGATTGTTTTTTTAT [XGTACX_site3913]", "gcPBM binding intensity (ln)": 7.41}, {"sequence": "ATGATCATAAGACACACACACAAAAAAAAAAAAAAA [CACACA_site6936]", "gcPBM binding intensity (ln)": 6.93}, {"sequence": "TCTGTGCACGCATGAAGTACAAAAAAGGTTTCCAGT [XGTACX_site5049]", "gcPBM binding intensity (ln)": 9.78}, {"sequence": "CTATATACTAAATGCACACTTATATATTTATATATA [CACACA_site2454]", "gcPBM binding intensity (ln)": 7.65}, {"sequence": "TATATTTTTTTAATATGTACATATATATATAAAACA [XGTACX_site2171]", "gcPBM binding intensity (ln)": 7.28}, {"sequence": "TAATTTTTATTTATAATAATATATGACATATATCCA [XGTACX_negctrl_site359]", "gcPBM binding intensity (ln)": 6.94}, {"sequence": "ATGAACAAAATGTAATGTACGAATAATTATTCATAT [XGTACX_site4812]", "gcPBM binding intensity (ln)": 6.97}, {"sequence": "TTAAGAATATCTACATGTACATACCAAAGAAATACA [XGTACX_site3125]", "gcPBM binding intensity (ln)": 7.31}, {"sequence": "TTTTATTCCTATTTATTTATATTTTTGTCTTATATC [CACACA_negctrl_site125]", "gcPBM binding intensity (ln)": 6.78}, {"sequence": "TAATTTTTTTTTTTTTTTTTTTTTTTTTTTTTCCTT [CACACA_negctrl_site1095]", "gcPBM binding intensity (ln)": 6.82}, {"sequence": "GGAATAATATAAAACACACACATAAATATAAATATA [CACACA_site3376]", "gcPBM binding intensity (ln)": 6.97}, {"sequence": "TATAGACAAACACATACATGCATACATACATACATA [TGCATGCA_site273]", "gcPBM binding intensity (ln)": 7.08}]}]}
